Results: PubChem BioAssay AID2147 (National Center for Advancing Translational Sciences (NCATS), 2009)
Several values for one entry are separate records, joined by “and”; a condition that tells them apart may be missing. Equal entries are not always repeated. Out of some 230,000 compounds screened, about 3,600 (1.6%) were called active. Inconclusive means that the source gave no clear call. Such entries were picked first, then a sample of the others. Calls come from the whole dose curve; as a rule, active = well fitted inhibition curve with a large enough effect (not every such curve was filed as active); inconclusive = small, poorly fitted or top-dose-only effect, or another doubt; inactive = no such curve, though single readings can be large or run the other way. A potency beside an inconclusive call is a rough fit, not a confirmed value.

Molecular target: Lysine-specific demethylase 4E (Homo sapiens) (UniProt B2RXH2)
Sequence of UniProt B2RXH2 (B2RXH2 whole entry, looked up, the tested form may be a part): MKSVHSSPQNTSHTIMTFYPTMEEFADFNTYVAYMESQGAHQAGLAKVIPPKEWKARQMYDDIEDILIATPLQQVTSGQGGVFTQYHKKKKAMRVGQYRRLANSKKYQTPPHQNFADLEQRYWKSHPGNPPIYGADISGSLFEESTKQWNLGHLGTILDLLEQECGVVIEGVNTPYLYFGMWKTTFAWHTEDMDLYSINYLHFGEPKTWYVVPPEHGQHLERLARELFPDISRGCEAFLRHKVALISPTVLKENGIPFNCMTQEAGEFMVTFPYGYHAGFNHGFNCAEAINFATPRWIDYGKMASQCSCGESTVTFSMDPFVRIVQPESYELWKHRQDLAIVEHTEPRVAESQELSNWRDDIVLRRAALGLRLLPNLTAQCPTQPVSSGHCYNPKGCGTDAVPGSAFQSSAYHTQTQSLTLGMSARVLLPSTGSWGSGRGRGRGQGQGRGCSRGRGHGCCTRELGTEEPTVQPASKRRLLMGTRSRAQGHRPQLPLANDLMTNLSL
Assay: qHTS Assay for Inhibitors of Human Jumonji Domain Containing 2E (JMJD2E)
Conditions: JMJD2E catalytic domain, FDH-coupled NADH fluorescence (FDH is formaldehyde dehydrogenase); series mostly up to 57.1 µM; activity change, negative = inhibition: at the top concentration
Description: Assay Provider: Structural Genomics Consortium [SGC] Screening Center PI: Austin, C.P. Screening Center: NIH Chemical Genomics Center [NCGC] The fine interplay among methylation states of several lysine residues on the tails of histone proteins is a major determinant of the transcriptional state of the associated DNA coding regions and is commonly referred to as the histone code. Histone lysine demethylases catalyze the removal of methyl groups from methylated lysine sidechains on histones H3 and H4, thus antagonizing the reactions catalyzed by histone lysine methyltransferases. […] In search for novel inhibitors of JMJD2E demethylase, a member of the largest set of histone demethylases belonging to the Fe(II) and 2-oxoglutarate oxygenase (2OG) superfamily, we performed a quantitative high-throughput screen (Inglese 2006) by using an assay which utilizes a trimethylated peptide substrate corresponding to a fragment of histone H3 (sequence ARKme3STGGK) with detection of the formaldehyde co-product in real time by a formaldehyde dehydrogenase (FDH) coupled reaction. FDH catalyzes oxidation of formaldehyde to formic acid with the concomitant reduction of the non-fluorescent beta-nicotinamide adenine dinucleotide hydrate (NAD+) cofactor to the fluorescent NADH co-product. References: Inglese, J., Auld, D., Jadhav, A., Johnson, R., Simeonov, A., Yasgar, A., Zheng, W. and Austin, C. Proc Natl Acad Sci USA 2006, 103, 11473-11478. N. R. Rose, S. S. Ng, J. Mecinovic, B. M. Lienard, S. H. Bello, Z. Sun, M. A. McDonough, U. Oppermann and C. J. Schofield, J Med Chem, 2008, 51, 7053-7056. Sakurai, M., Rose, N., Schultz, L., Quinn, A., Jadhav, A., Ng, S., Oppermann, U., Schofield, C.J. and Simeonov, A. Mol BioSystems 2009, in press. S. Michael, D. Auld, C. Klumpp, A. Jadhav, W. Zheng, N. Thorne, C. Austin, J. Inglese and A. Simeonov, Assay Drug Dev Technol, 2008, 6, 637-657.
Reagents and Controls: Ferrous ammonium sulfate, (+)-sodium L-ascorbate, beta-nicotinamide adenine dinucleotide hydrate (NAD+), Tween-20, formaldehyde dehydrogenase from P. putida (FDH), and disodium 2-oxoglutarate were from Sigma (St. Louis, MO). Black solid-bottom 384-well or 1,536-well assay plates were from Greiner Bio-One (Monroe, NC). Enzyme was supplied by Prof. Udo Oppermann, SGC-Oxford. The catalytic domain of human JMJD2E (residues 1-337) was produced as an N-terminally His6-tagged protein in E. coli, and purified by Ni-affinity chromatography and size-exclusion chromatography, and stored in HEPES 50 mM/ NaCl 500 mM pH 7.5, as reported in Rose 2008. The trimethylated histone peptide substrate ARK(me3)STGGK was synthesized and HPLC-purified by the Tufts University Core Facility (Boston, MA). Substrate solution (Sakurai 2009) contained 50 uM ARK(me3)STGGK, 0.00025 U/uL FDH, 50 uM 2-oxoglutarate, 250 uM NAD+, 1 mM ascorbate, and 10 uM ferrous ammonium sulfate. Controls and plate map: Buffer (150 mM HEPES pH 7.5 containing 0.01% Tween-20) in columns 3 and 4 as negative control (no enzyme) and 100 nM JMJD2E final concentration in columns 1,2, and 5-48. Assay Steps: Enzyme and buffer solutions (3 uL) were dispensed into a 1,536-well Greiner black solid-bottom assay plate. The library compounds (23 nL) were transferred using a Kalypsys pintool equipped with 1,536-pin array. The plate was incubated at room temperature (15 min), and then a 1 uL aliquot of substrate solution was added to initiate the reaction. The plate was transferred to ViewLux imager where an initial reading using standard UV optics (Ex 340 nm, Em 450 nm) was obtained. The plate was then removed from the reader, incubated for 30 minutes at room temperature, and returned to the reader for a second fluorescence reading. A fully automated robotic screening system (Kalypsys Inc, San diego, CA) was used to perform the above steps as described previously (Michael 2008). […]
Note: nearly all actives have a fitted effect of over 50% in size.
Potency is the fitted concentration of half-maximal effect; tags give direction and shape of the fitted curve.
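Throughout, for activity change, negative = inhibition: 0% = wells with enzyme and -100% = buffer wells without enzyme.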

SMILES | Potency | activity change, negative = inhibition
C[C@@H](CO)NC(=O)[C@@H]1C=C2c3cccc4[nH]cc(c34)C[C@H]2N(C)C1 | inconclusive: 35.5 µM [inhibitor, partial curve] | –
CCCCNC(=O)Oc1c(Br)cc2sc(=O)oc2c1Br | inconclusive: 35.5 µM [inhibitor, single point] | –
CCC[C@@H]1CC2=CC(=O)CC[C@]2(C)[C@@H]2CC[C@@]3(C)[C@H](CC[C@]3(O)CCC(=O)O)[C@H]12 | – | inactive: 4.71%
CCOC(=O)c1c(/N=C/C2C(=O)NC(=S)NC2=O)sc(C)c1C | – | inactive: -4.34%
COc1ccc(CC(=O)Nc2ccc3c(C(F)(F)F)cc(=O)oc3c2)cc1OC | – | inactive: -4.79%
CC/C(=C\C=C\[C@@H]1C=C[C@@H]2CCC[C@H]2[C@@H]1C(=O)c1ccc[nH]1)[C@@H]1O[C@@H]([C@@H](C)C(=O)O)CC[C@@H]1C | inconclusive: 8.91 µM [inhibitor, partial curve] | –
NC(C(=O)O)[C@@H]1CC(Cl)=NO1 (stereo not given in full) | inconclusive: 39.8 µM [inhibitor, single point] | –
COc1ccc(NC(=O)Cn2c3ccccc3c3nc4n(c(=O)c32)CCS4)cc1 | inconclusive: 31.6 µM [inhibitor, partial curve] | –
C=CCN1C(=O)NC(=O)/C(=C/c2ccc(OC)c(COc3ccc(NC(C)=O)cc3)c2)C1=O | – | inactive: -24.8%
N#Cc1c(Cl)nc(Cl)c2c1CCN(Cc1ccccc1)C2 | inconclusive: 31.6 µM [inhibitor, partial curve] | –
COc1ccc(OCC(=O)N2CCN(CC3CC4C=CC3C4)CC2)cc1 (stereo not given) | inconclusive: 28.2 µM [inhibitor, single point] | –
CC(=O)OCC(=O)[C@H]1CC[C@H]2[C@@H]3CC=C4C[C@@H](O)CC[C@]4(C)[C@H]3CC[C@]12C | inconclusive: 1.58 µM [inhibitor, partial curve] | –
c1cc2c(cc1CCNC1CCCCCC1)OCO2 | inconclusive: 31.6 µM [inhibitor, single point] | –
Cn1cnc([N+](=O)[O-])c1Sc1ccc([N+](=O)[O-])cc1 | – | inactive: -0.244%
Cc1ccccc1-n1c(O)c(/C=C2/C(c3ccccc3)=Nc3ccccc32)c(=O)[nH]c1=O | – | inactive: 1.98%
C=CCN1C(=O)NC(=O)C(CCc2ccncc2)(CCc2ccncc2)C1=O | inconclusive: 39.8 µM [inhibitor, single point] | –
O=C(O)C1C2CCC(O2)C1C(=O)O (stereo not given) | inconclusive: 39.8 µM [inhibitor, single point] | –
Cc1ccc(Sc2ccc(C=C3C(=O)N(C)C(=O)N(C)C3=O)o2)cc1 | – | inactive: 8.21%
O=C1CC(c2cccnc2)=NN1c1ccccc1 | inconclusive: 35.5 µM [inhibitor, single point] | –
O=C(Nc1ccc2ccccc2c1)N1C[C@H]2C[C@@H](C1)c1cccc(=O)n1C2 | inconclusive: 28.2 µM [inhibitor, partial curve] | –
Cc1ccc2c(c1)c(=O)c1c3n2CCN(CC2CO2)C3CC1 (stereo not given) | inconclusive: 31.6 µM [inhibitor, partial curve] | –
COC(=O)COc1cc(Cl)c(Cl)cc1Cl | – | inactive: 11.4%
CN(C)C1C(=O)C(C(N)=O)=C(O)[C@@]2(O)C(=O)C3=C(O)c4c(O)cccc4[C@](C)(O)C3C(O)C12 (stereo not given in full) | active: 8.91 µM | –
Cc1ccc(C)c(NC(=O)CSc2nnc([C@@H](N)Cc3c[nH]c4ccccc34)o2)c1 | inconclusive: 28.2 µM [inhibitor, single point] | –

SMILES | Potency | activity change, negative = inhibition
COc1ccc(C(=O)C2CCCN(C3CSCCSC3)C2)c(OC)c1 (stereo not given) | – | inactive: -12.3%
CN1CCc2nc(SCc3cccc(Br)c3)c(C#N)cc2C1 | inconclusive: 39.8 µM [inhibitor, single point] | –
C/C=C(/C)C(=O)OC1CC[C@]2(C)C3CCC4[C@]5(O)CC(O)[C@]6(O)C(CN7CC(C)CCC7[C@]6(C)O)[C@]5(O)C[C@@]42O[C@]13O (stereo not given in full) | – | inactive: 0.823%
CCc1ccc(CN2CCN(Cc3ccc(SC)cc3)CC2)cc1 | inconclusive: 25.1 µM [inhibitor, single point] | –
Cc1c(N=Nc2c(O)[nH]c(=O)[nH]c2=O)c(=O)n(-c2ccccc2)n1C | active: 3.55 µM | –
COc1cc2c3c(c1OC)-c1cc(O)ccc1CC3NCC2 (stereo not given) | inconclusive: 31.6 µM [inhibitor, partial curve] | –
CCC(=NCc1ccco1)c1c(O)n(Cc2ccccc2)c(=O)[nH]c1=O | inconclusive: 35.5 µM [inhibitor, single point] | –
Cc1ccc(C(=O)Nc2nc3ccccc3n2CCN2CCCC2)cc1 | inconclusive: 39.8 µM [inhibitor, single point] | –
CCCNC(=O)NC(=O)COc1ccc(-c2ccc(C#N)cc2)cc1 | inconclusive: 15.8 µM [inhibitor, partial curve] | –
C[C@@]12CCC3c4ccc(OS(=O)(=O)O)cc4CCC3C1CCC2O (stereo not given in full) | – | inactive: 188%
CCCCn1c(O)c(/C=N/NC(=O)c2ccncc2)c(=O)[nH]c1=S | inconclusive: 35.5 µM [inhibitor, single point] | –
COc1cc(/C=C2\C(=O)NC(=O)N(c3ccc(C)cc3)C2=O)cc(OC)c1O | inconclusive: 17.8 µM [inhibitor, partial curve] | –
N#CC(C(=O)C12CC3CC(CC(C3)C1)C2)c1nc2ccccc2[nH]1 (stereo not given) | inconclusive: 35.5 µM [inhibitor, single point] | –
Cc1nn(CC(C)C)c(Cl)c1C(=O)O | – | inactive: -6.91%
COc1ccccc1OCC#CCN1CCCC1 | inconclusive: 22.4 µM [inhibitor, single point] | –
COc1cccc(N=Cc2c(O)n(Cc3ccco3)c(=O)[nH]c2=O)c1 | inconclusive: 39.8 µM [inhibitor, single point] | –
O=C1NC(=O)C2(Cc3ccccc3N3CCCC32)C(=O)N1c1cccc(Cl)c1 (stereo not given) | – | inactive: -18.9%
O=c1[nH]c(=O)n(Cc2ccc(F)cc2)c(O)c1C=NCCCN1CCOCC1 | – | inactive: 2.5%
Cn1cc(C(=O)Cc2ccccc2)c2ccccc21 | – | inactive: 7.48%
O=c1[nH]c(=O)n(CCC2=CCCCC2)c(O)c1C=NCc1cccnc1 | – | inactive: -4.05%
CN(CCOc1ccc(C=C2C(=O)NC(=O)NC2=O)cc1)c1ccccn1 | inconclusive: 31.6 µM [inhibitor, partial curve] | –
CCCN(CCC)CCc1ccc(O)c(O)c1 | active: 20 µM | –
Oc1c(Cl)c(Cl)c(Cl)c(Cl)c1Cl | – | inactive: 0.773%
CC(C)n1c(=O)c(C=Nc2ccc(S(N)(=O)=O)cc2)c(O)n(Cc2ccco2)c1=O | inconclusive: 35.5 µM [inhibitor, single point] | –

SMILES | Potency | activity change, negative = inhibition
CNC(=O)Oc1ccc(-c2cn3cc(C)ccc3n2)cc1 | inconclusive: 11.2 µM [inhibitor, partial curve] | –
Nc1c(C(=O)NCc2ccco2)c2nc3ccccc3nc2n1Cc1ccc(F)cc1 | inconclusive: 14.1 µM [inhibitor, partial curve] | –
COc1ccc(CCNCc2ccc(OC)c(OC)c2OC)cc1 | inconclusive: 28.2 µM [inhibitor, partial curve] | –
O=c1[nH]c(=S)n(-c2ccccc2)c(O)c1/C=N/N1CCCCC1c1cccnc1 (stereo not given) | – | inactive: -7.38%
COCCCNC(=O)c1c(NC(=O)c2ccco2)n(Cc2ccccc2)c2nc3ccccc3nc12 | inconclusive: 15.8 µM [inhibitor, partial curve] | –
O=C1NC(=O)N(CCc2ccc(F)cc2)C(=O)/C1=C/c1cccs1 | – | inactive: 5.84%
COc1ccc(OC)c(N2C(=O)NC(=O)/C(=C\c3ccc([N+](=O)[O-])s3)C2=O)c1 | active: 22.4 µM | –
COc1cc(C(C#N)N2CCOCC2)ccc1O (stereo not given) | inconclusive: 39.8 µM [inhibitor, single point] | –
Ic1ccccc1CNC1C2CCN(CC2)C1C(c1ccccc1)c1ccccc1 (stereo not given) | inconclusive: 35.5 µM [inhibitor, single point] | –
COc1ccc2c(c1)[nH]c1c(C)nccc12 | inconclusive: 12.6 µM [inhibitor, partial curve] and inconclusive: 28.2 µM [inhibitor, partial curve] and inconclusive: 14.1 µM [inhibitor, full curve] | –
CCCCn1c(N)c(C(=O)NCc2cccs2)c2nc3ccccc3nc21 | inconclusive: 31.6 µM [inhibitor, partial curve] | –
CCN1c2nc3ccccn3c(=O)c2CC2(C(=O)N(C)C(=O)N(C)C2=O)C1C (stereo not given) | inconclusive: 28.2 µM [inhibitor, partial curve] | –
O=C1NC(=O)C(=Cc2ccccc2OCCOc2ccc([N+](=O)[O-])cc2)C(=O)N1 | – | inactive: -29%
COc1ccc(/C=C2/C(=O)N(Cc3ccco3)C(=O)N(C(C)C)C2=O)cc1 | inconclusive: 39.8 µM [inhibitor, single point] | –
CCOC(=O)c1c(/N=C/C2C(=O)NC(=S)NC2=O)sc2c1CCC2 | inconclusive: 39.8 µM [inhibitor, single point] | –
CCN(C(C)=O)c1cccc(-c2ccnc3c(C#N)cnn23)c1 | inconclusive: 28.2 µM [inhibitor, partial curve] | –
CC(=O)Oc1c(C)cccc1C(=O)O | inconclusive: 31.6 µM [inhibitor, partial curve] | –
CCOP(=O)(CN(CC)CCNP(=O)(OCC)OCC)OCC | – | inactive: -5.81%
O=C(c1cc2nc(-c3ccccc3)cc(-c3ccccc3)n2n1)N1CCC2(CC1)OCCO2 | inconclusive: 35.5 µM [inhibitor, partial curve] | –
CCN1CCN(c2ccc(N)cc2C)CC1 | – | inactive: -28.6%
CNC(C)[C@H](O)c1ccccc1 (stereo not given in full) | – | inactive: 3.82%
Cc1cc(NC(=O)CCl)on1 | – | inactive: -4.21%
